# Data taken from PubChem BioAssay AID463173 (ICCB-Longwood Screening Facility, Harvard Medical School, 2010).
# About 1,700 (3.3%) of roughly 52,000 compounds were called active. Rule as the data show it: active = survival mostly below about 52% (no sharp cut-off); inactive = mostly above about 56%. Some of the results follow.
# System: Wild type
# Experiment: growth inhibition of S. aureus wild type versus tarO mutant, primary screen, teichoic acid synthesis inhibitors, RN4220, OD600 (AID 463173)
# Conditions: S. aureus RN4220 wild type/DeltatarO growth, OD600, 18 h, hits give low values, screened at 18.75 µg/mL (by protocol)
row,SMILES,survival
1,CCOC(=O)c1c(NC(=O)CSc2cn(CCNC(=O)c3ccc(OCC)cc3)c3ccccc23)sc2c1CCC2,inactive: 71%
2,O=C(CSc1nc2ccccc2n1CC(=O)N1CCCC1)N1CCCCC1,inactive: 104%
3,Clc1ccc2nc(-c3cccs3)c(Nc3ccc4c(c3)OCCO4)n2c1,inactive: 78%
4,CCOC(=O)c1cc(OC(=O)c2cc(OC)cc(OC)c2)n(-c2ccccc2)n1,inactive: 66%
5,CC1=C(C(=O)OC2CCCCCC2)C(c2ccc(Cl)cc2Cl)CC(=O)N1 (configuration not stated),inactive: 82%
6,CC1Cc2cc(S(=O)(=O)NCc3ccccc3)ccc2N1C(=O)C1CCC1 (configuration not stated),inactive: 73%
7,C=CCSc1nc2ccccc2c(=O)n1CC1CCCO1 (configuration not stated),inactive: 108%
8,CN(C)S(=O)(=O)c1ccc(S(=O)(=O)N(CC(=O)Nc2ccccc2)C2CC2)cc1,inactive: 101%
9,COc1ccccc1NC(=O)CSc1oc(-c2ccc(F)cc2)nc1S(=O)(=O)c1ccc(Br)cc1,inactive: 64%
10,CC(C)(C)c1ccccc1NC(=O)c1cnn2c(C(F)F)cc(-c3ccccc3)nc12,inactive: 75%
11,CCCCCOc1ccc(C(CC(N)=O)CC(=O)O)cc1 (configuration not stated),inactive: 117%
12,Cn1c(=O)c2c(SCC(=O)Nc3ccc(F)cc3F)nc(C3CCCC3)nc2n(C)c1=O,inactive: 66%
13,CCOC(=O)c1cnc(N2CCN(c3ccc(C)cc3C)CC2)c2ccccc12,inactive: 112%
14,Cc1ccc(C)c(NC(=O)Cn2ccn(-c3ccc(F)cc3)c(=O)c2=O)c1,inactive: 112%
15,CSc1cccc(NC(=O)CN2C(=O)COc3ccc(S(=O)(=O)N4CCC(C)CC4)cc32)c1,inactive: 77%
16,Cc1sc2nc(CN(C(=O)c3cccs3)C3CCCC3)[nH]c(=O)c2c1C,inactive: 114%
17,COCCN(C(C)=O)c1nnc(-c2cccnc2)s1,inactive: 94%
18,Cc1ccccc1CNC(=O)c1ccc2[nH]c(C)c(C)c2c1,inactive: 120%
19,Cc1cc(Cl)nc(SCC(=O)c2ccccc2)n1,inactive: 98%

row,SMILES,survival
1,Cc1cc(C)cc(Nc2cc(C)nc3nc(-c4ccco4)nn23)c1,inactive: 78%
2,Cc1ccc(-c2nc3c4ccccc4n(CC(=O)N4CCN(c5ccc(F)cc5)CC4)c(=O)n3n2)cc1,inactive: 83%
3,COc1ccc(CCNC(=O)C2CCCN2C(=O)NC2CCCCC2)cc1OC (configuration not stated),inactive: 105%
4,CCC(C)NC(=O)Cn1c(-c2cccs2)cc2cc(Cl)ccc21 (configuration not stated),inactive: 70%
5,CCOC(=O)c1c(NC(=O)c2cc(-c3ccc(Cl)cc3)on2)sc(C)c1C,inactive: 81%
6,Cc1ccc(CN(C(=O)c2ccccc2[N+](=O)[O-])c2ccccn2)cc1,inactive: 81%
7,Cc1cc(N2CCC(C(=O)NCCC(C)C)CC2)n2nc(C)c(-c3ccc(Cl)cc3)c2n1,inactive: 85%
8,COc1ccc(-c2nc(-c3ccccc3)c(-c3ccc(F)cc3)[nH]2)c(OC)c1C,active: 15%
9,CC1CN(C(=O)CCC(=O)NCc2ccccc2)c2cc(Cl)ccc2O1 (configuration not stated),inactive: 92%
10,Cc1ccc(Cl)cc1NC(=O)Cn1ncc2c(C)n(Cc3ccccc3F)c(C)c2c1=O,inactive: 80%
11,CC(C)(C)NC(=O)c1ccc2nc(CCc3ccccc3)oc2c1,inactive: 65%
12,Cc1cc(C)cc(N2C(=O)CCSC23C(=O)N(Cc2ccccc2)c2ccccc23)c1 (configuration not stated),inactive: 73%
13,CCOc1ccc(CCNC(=O)c2ccc3c(c2)sc2nc(-c4ccc(F)cc4)cn23)cc1OCC,inactive: 76%
14,O=S(=O)(NCCc1csc2nc(-c3ccc(F)cc3)nn12)c1ccc(Oc2ccccc2)cc1,inactive: 92%
15,COc1cccc(CNCCSc2nnnn2C)c1OCc1ccc(F)cc1,inactive: 69%
16,CC(C)c1ccc(NC(=O)CCn2c(=O)c3cccn3c3ccccc32)cc1,inactive: 73%
17,Cc1ccc(C(CC(=O)Nc2ccc(F)c(Cl)c2)N2Cc3ccccc3C2=O)cc1 (configuration not stated),inactive: 78%
18,COc1cccc(NC(=O)N(Cc2c[nH]c3ccccc23)C2CCCCC2)c1,inactive: 71%
19,CCOC(=O)c1[nH]c(C)c(CCC(=O)Nc2ccc(Br)c(C)c2)c1C,inactive: 81%

row,SMILES,survival
1,Cc1ccc(N2CC(NC(=O)C3CC3)CC2=O)cc1C (configuration not stated),inactive: 75%
2,CCOC(=O)c1ccn(-c2nc(-c3cccc(OC)c3)cc(C(F)(F)F)n2)n1,inactive: 48%
3,Cc1nc2sccn2c(=O)c1S(=O)(=O)Nc1ccc(N2CCN(C(=O)C(C)C)CC2)cc1,inactive: 87%
4,COc1cc(C(=O)Nc2nonc2-c2ccc(Cl)cc2)cc(OC)c1OC,inactive: 94%
5,Cc1cccc(N2CCN(S(=O)(=O)c3c(C(=O)N4CCC(C)CC4)c(C)n(C)c3C)CC2)c1C,inactive: 72%
6,Cc1ccc(NC(=O)Cn2cnc3sc(C)c(S(=O)(=O)N4CCN(c5ncccn5)CC4)c3c2=O)cc1F,inactive: 73%
7,CCCCCc1nn2cc(-c3ccccc3)nc2s1,inactive: 107%
8,Cn1nnnc1SCCCNCc1cc(Cl)ccc1OCc1ccccc1F,inactive: 85%
9,Cc1sc2ncnc(SCC(N)=O)c2c1C,inactive: 101%
10,Cc1cccc(CNC(=O)C2CCN(S(=O)(=O)c3ccc4c(c3)CCCN4C(=O)C3CCC3)CC2)c1,inactive: 84%
11,CCCc1cnc2c(c1SCC(=O)Nc1ccccc1F)c(=O)n(C)c(=O)n2C,inactive: 123%
12,CCOC(=O)c1cnc(SC)nc1Nc1ccccc1,inactive: 114%
13,CC1CCN(C(=O)c2cc3n(n2)C(C(F)(F)F)CC(c2ccco2)N3)CC1 (configuration not stated),inactive: 115%
14,COc1ccc(NC(=O)CSC2=Nc3ccccc3C3=NC(CC(=O)NCc4ccc5c(c4)OCO5)C(=O)N23)cc1 (configuration not stated),inactive: 71%
15,CCOc1ccc(C(c2c(O)cc(C)n(Cc3ccco3)c2=O)N2CCN(c3ccccc3)CC2)cc1 (configuration not stated),inactive: 83%
16,Cc1ccc(C2C=C(c3ccc(Cl)cc3)Nc3nc(NC(=O)c4ccco4)nn32)cc1 (configuration not stated),inactive: 103%
17,CCc1nn(Cc2c(C)cc(C)cc2C)c(=O)c2cc3cc(C)ccc3n12,inactive: 96%
18,CCCC12CN3CC(CCC)(CN(C1)C3c1c(C)[nH]c(=O)[nH]c1=O)C2=O (configuration not stated),inactive: 111%
19,O=C(Nc1ccc(F)cc1F)N1CCN(c2ccc(Cl)c(Cl)c2)CC1,inactive: 52%
